Assay results: PubChem BioAssay AID1345082 (National Center for Advancing Translational Sciences (NCATS), 2018)
Screen size: about 94,000 compounds; about 4,000 (4.3%) were called active. Inconclusive results, whose numbers are uncertain, are shown with a selection of clear calls. The call rests on the fitted dose curve; in most records, active means well fitted inhibition curve with a large enough effect; inconclusive means small, poorly fitted or top-dose-only effect; inactive means no such curve, though single readings can be large or run the other way. Potencies of inconclusive entries are doubtful fits and often do not repeat.
Potency means the concentration at half of the fitted maximal effect; tags describe the fitted curve by direction and shape.

Assay: Cytotoxic Profiling in NIH 3T3 Cell Line of Diverse Libraries Using Quantitative High-Throughput Screening; further: nearly all actives have a fitted effect of over 55% in size
Details: NIH 3T3 viability, CellTiter-Glo ATP luminescence, 48-72 h; series mostly up to 96.7 µM
Outline: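 Mouse fibroblast NIH 3T3 cells, 400 per well, received compound via pintool and were incubated for 48 or 72 hr prior to CellTiter-Glo ATP luminescence measurement.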
With `O=C(c1ccc(Cl)cc1)N1CC2(CCCN2Cc2cc(F)c(F)c(F)c2)Cc2ccccc21` (configuration not stated) the Potency was inconclusive: 44.7 µM [inhibitor, partial curve, poor fit]. With `CN(C)c1ccc(C(=O)N[C@H]2CO[C@H]3[C@@H]2OC[C@@H]3n2cc(CC3CCCCC3)nn2)cc1` the Potency was inconclusive: 20 µM [inhibitor, partial curve, poor fit]. In the case of `CC(=O)NCc1nnc2n1C(C(=O)Nc1ccc(F)cc1)CC2` (configuration not stated), the Potency is reported as “inactive”. In the case of `O=C1N(c2ccccc2)CCOC12CCN([S+](=O)([O-])c1cccnc1)CC2`, the Potency is reported as inconclusive: 112 µM [inhibitor, single point]. With `COC(=O)c1ccc2nc(C[C@@H]3C[C@@H](C(C)C)[C@H](CNC(=O)CCC(=O)O)C=C3C)[nH]c2c1` the Potency was “inactive”. In the case of `CCOc1ccc(CC(=O)N2[C@@H]3CC[C@H]2CC(NC(=O)c2ccc(F)cc2)C3)cc1` (some centres not stated), the Potency is reported as “inactive”. In the case of `COc1cccc(-c2cc3c(=O)n(CCNC(=O)c4nn(C)c5ccccc45)ccn3n2)c1`, the Potency is reported as inconclusive: 12.6 µM [inhibitor, full curve, poor fit]. In the case of `Clc1ccc(-c2cnc3n2C[C@H](CNC2CCOCC2)OC3)cc1`, the Potency is reported as active: 89.1 µM. With `Cc1ccc(-c2nc(C(=O)N(C)Cc3ccccc3)no2)cc1` the Potency was inconclusive: 50.1 µM [inhibitor, single point]. For `O=C(c1ccccc1Cl)N1CCc2nc(C3CC3)nc(-c3ccc(O)cc3)c2CC1`, the Potency was “inactive”. For `Cn1c(=O)[nH]cc(CC(=O)N2CCCC(c3cccc(C(=O)O)c3)C2)c1=O` (configuration not stated), the Potency was “inactive”. For `O=C(NCc1cccs1)c1ccc2c(c1)OCCN(c1ccccc1)C2`, the Potency was inconclusive: 10 µM [inhibitor, full curve]. In the case of `O=C(CCc1c[nH]c2ccccc12)N1CCC[C@H]1c1nc(-c2ccc(F)cc2)n[nH]1`, the Potency is reported as inconclusive: 44.7 µM [inhibitor, partial curve, poor fit]. In the case of `COc1ccc(C2(C(=O)N3CCC(Oc4ccc(-c5noc(C)n5)cc4)C3)CC2)cc1` (configuration not stated), the Potency is reported as inconclusive: 39.8 µM [inhibitor, partial curve, poor fit]. In the case of `CC(=O)c1ccc(NC(=O)O[C@@H]2CO[C@H]3[C@@H]2OC[C@@H]3Nc2nccc(-c3ccco3)n2)cc1`, the Potency is reported as inconclusive: 56.2 µM [inhibitor, partial curve, poor fit]. For `CC(C)CNc1ccc2c(n1)C(C)(C(=O)N1CCC1)CN(Cc1ccccc1)C2` (configuration not stated), the Potency was inconclusive: 50.1 µM [inhibitor, partial curve, poor fit]. For `CCn1cc(-c2cc(-c3ccccc3OC)nc3c(C)noc23)cn1`, the Potency was inconclusive: 56.2 µM [inhibitor, partial curve, poor fit].
